Source: patent publication US5464820A, “Specific inhibitors of tissue kallikrein” (priority 1993, dated 1995)
Values joined by “and” are separate entries in the source; they are usually repeats but may differ in a detail not shown here. Equal values may be shown once. Read-outs that look alike come from different tables or passages of the source. At least one peptide structure holds a part that was inferred or is arguable (an end, a ring closure or a residue). Some compounds share one wording; it may come from a single statement. At least one compound was matched to its structure with a doubt left. Positions of bridges follow the written chain, without caps; N, C: chain ends. Non-standard residues stand in square brackets, D forms with d. Residues, ends and D or L forms follow the SMILES beside them. Chains are numbered I, II in the order given. *: point of attachment. Phe(4-NH2) = Nc1ccc(C[C@H](N)C(=O)O)cc1; 1Nal = N[C@@H](Cc1cccc2ccccc12)C(=O)O; 2Nal = N[C@@H](Cc1ccc2ccccc2c1)C(=O)O; Phe(2-F) = N[C@@H](Cc1ccccc1F)C(=O)O; mTyr = N[C@@H](Cc1cccc(O)c1)C(=O)O; 3Pal = N[C@@H](Cc1cccnc1)C(=O)O; 2Thi = N[C@@H](Cc1cccs1)C(=O)O; Cha = N[C@@H](CC1CCCCC1)C(=O)O; Dab = NCC[C@H](N)C(=O)O; Dap = NC[C@H](N)C(=O)O; For = O=C*

Legend:
[1] = target: porcine pancreatic kallikrein (PPK) (Sus scrofa, UniProt P00752); assay: Inhibition of porcine pancreatic kallikrein, cleavage of chromogenic substrate S-2266 (KI); format: biochemical; conditions: for specificity for tissue kallikrein over plasma kallikrein: P2 substitutions, Table 4
Sequence of porcine pancreatic kallikrein (PPK) (P00752 8-87 limits assumed): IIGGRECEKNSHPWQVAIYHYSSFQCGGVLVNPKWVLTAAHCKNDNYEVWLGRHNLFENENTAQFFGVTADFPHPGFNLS
Sequence of porcine pancreatic kallikrein (PPK) (P00752 95-246 limits assumed): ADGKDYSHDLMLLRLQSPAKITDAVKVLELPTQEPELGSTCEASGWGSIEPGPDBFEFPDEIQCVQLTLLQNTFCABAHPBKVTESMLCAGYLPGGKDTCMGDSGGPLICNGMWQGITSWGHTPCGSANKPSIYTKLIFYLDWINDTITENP

[2] = target: human plasma kallikrein (HPK) (Homo sapiens, UniProt P03952); assay: Inhibition of human plasma kallikrein (KI); format: biochemical
Sequence of human plasma kallikrein (HPK) (P03952 20-638): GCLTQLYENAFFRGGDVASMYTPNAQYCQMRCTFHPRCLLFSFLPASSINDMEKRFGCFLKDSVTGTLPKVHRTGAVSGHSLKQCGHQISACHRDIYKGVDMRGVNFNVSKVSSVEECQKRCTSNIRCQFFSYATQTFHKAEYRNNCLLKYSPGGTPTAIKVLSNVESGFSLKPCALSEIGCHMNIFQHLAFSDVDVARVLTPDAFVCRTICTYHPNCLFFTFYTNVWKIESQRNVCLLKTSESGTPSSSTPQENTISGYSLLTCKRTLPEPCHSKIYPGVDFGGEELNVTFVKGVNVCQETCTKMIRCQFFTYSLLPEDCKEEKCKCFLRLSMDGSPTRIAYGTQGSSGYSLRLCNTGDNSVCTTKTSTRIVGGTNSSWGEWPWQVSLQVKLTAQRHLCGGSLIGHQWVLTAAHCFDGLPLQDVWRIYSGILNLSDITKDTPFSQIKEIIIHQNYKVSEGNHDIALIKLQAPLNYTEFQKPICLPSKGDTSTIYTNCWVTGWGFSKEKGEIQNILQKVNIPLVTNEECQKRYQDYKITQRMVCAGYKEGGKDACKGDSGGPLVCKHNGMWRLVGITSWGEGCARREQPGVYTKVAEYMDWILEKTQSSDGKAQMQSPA
Description: Assay methods were based on the cleavage of chromogenic substrate S-2266 (D-Val-Leu-Arg-pNA) (Kabi; Charlotte, N.C.) by porcine pancreatic kallikrein (Sigma Chemical Company; St. Louis, Mo.) to yield an increase in absorbance at 405 nm. By changing the substrate and enzyme, the general method has been extended to measure the inhibition of human tissue kallikrein (HTK or human urinary kallikrein HUK), human plasma kallikrein (HPK), plasmin, and urokinase (UK). In all assays, the robot dilutes the inhibitor into a series of wells and adds substrate and buffer. Chromogenic reactions are started by the addition of enzyme. Changes in the absorbance at 405 nm in an array of wells were recorded. All manipulations were performed by the instrument from reservoirs containing substrate, inhibitor, diluent (water), buffer, or enzyme.

[3] = Table 4, Pro-X-Arg-Ser-Val-Gln, read-out: KI PPK
[4] = Table 7, in mM, read-out: K1 HPK
[5] = Table 7, in mM, read-out: K1 PPK

CC(C)[C@H](NC(=O)[C@H](CSSC[C@H](NC(=O)[C@H](CCCNC(=N)N)NC(=O)[C@H](Cc1ccccc1)NC(=O)[C@@H]1CCCN1)C(=O)N[C@H](C(=O)N[C@@H](CCC(N)=O)C(N)=O)C(C)C)NC(=O)[C@H](CCCNC(=N)N)NC(=O)[C@H](Cc1ccccc1)NC(=O)[C@@H]1CCCN1)C(=O)N[C@@H](CCC(N)=O)C(N)=O [Cys2] (I: H-PFRCVQ-NH2 / II: H-PFRCVQ-NH2; disulfide I:4-II:4; N-terminus assumed)
Ki ([1]; Table 5, Pro-Phe-Arg-X-Val-Gln, read-out: KI PPK): 0.016 mM and 0.027 mM | Ki ([1]; Table 5, values in [] : Dithiothreitol, read-out: KI PPK): 0.065 mM

CC(C)[C@H](NC(=O)[C@H](CO)NC(=O)[C@H](CCCNC(=N)N)NC(=O)[C@H](Cc1ccccc1F)NC(=O)[C@@H]1CCCN1)C(=O)N[C@@H](CCC(N)=O)C(N)=O [KCH-1] (H-P[Phe(2-F)]RSVQ-NH2)
specificity for tissue kallikrein over plasma kallikrein [1]: some specificity for tissue kallikrein over plasma kallikrein

CC(C)[C@H](NC(=O)[C@H](CO)NC(=O)[C@H](CCCNC(=N)N)NC(=O)[C@H](Cc1cccnc1)NC(=O)[C@@H]1CCCN1)C(=O)N[C@@H](CCC(N)=O)C(N)=O [KCH-3] (H-P[3Pal]RSVQ-NH2; N-terminus assumed)
Ki [1, 3]: 0.381 mM

CC(C)[C@H](NC(=O)[C@H](CO)NC(=O)[C@H](CCCNC(=N)N)NC(=O)[C@H](Cc1cccs1)NC(=O)[C@@H]1CCCN1)C(=O)N[C@@H](CCC(N)=O)C(N)=O [KCH-4] (H-P[2Thi]RSVQ-NH2)
specificity for tissue kallikrein over plasma kallikrein [1]: some specificity for tissue kallikrein over plasma kallikrein

CC(C)[C@H](NC(=O)[C@H](CO)NC(=O)[C@H](CCCNC(=N)N)NC(=O)[C@H](Cc1ccc2ccccc2c1)NC(=O)[C@@H]1CCCN1)C(=O)N[C@@H](CCC(N)=O)C(N)=O [KCH-6] (H-P[2Nal]RSVQ-NH2)
specificity for tissue kallikrein over plasma kallikrein [1]: some specificity for tissue kallikrein over plasma kallikrein

CC(C)[C@H](NC(=O)[C@H](CO)NC(=O)[C@H](CCCNC(=N)N)NC(=O)[C@H](Cc1cccc2ccccc12)NC(=O)[C@@H]1CCCN1)C(=O)N[C@@H](CCC(N)=O)C(N)=O [KCH-7] (H-P[1Nal]RSVQ-NH2)
specificity for tissue kallikrein over plasma kallikrein [1]: some specificity for tissue kallikrein over plasma kallikrein

CC(C)[C@H](NC(=O)[C@H](CO)NC(=O)[C@H](CCCNC(=N)N)NC(=O)[C@H](Cc1cccc(O)c1)NC(=O)[C@@H]1CCCN1)C(=O)N[C@@H](CCC(N)=O)C(N)=O [KCH-8] (H-P[mTyr]RSVQ-NH2)
Ki ([2]; Table 4, Pro-X-Arg-Ser-Val-Gln, read-out: KI HPK): 0.401 mM | specificity for tissue kallikrein over plasma kallikrein [1]: some specificity for tissue kallikrein over plasma kallikrein | Ki [1, 3]: 0.184 mM

CC(C)[C@H](NC(=O)[C@H](CO)NC(=O)[C@H](CCCNC(=N)N)NC(=O)[C@H](CC1CCCCC1)NC(=O)[C@@H]1CCCN1)C(=O)N[C@@H](CCC(N)=O)C(N)=O [KCH-10] (H-P[Cha]RSVQ-NH2)
specificity for tissue kallikrein over plasma kallikrein [1]: some specificity for tissue kallikrein over plasma kallikrein

CC(C)[C@H](NC(=O)[C@H](CO)NC(=O)[C@H](CCCNC(=N)N)NC(=O)[C@H](Cc1cn(C=O)c2ccccc12)NC(=O)[C@@H]1CCCN1)C(=O)N[C@@H](CCC(N)=O)C(N)=O [KCH-12] (H-PW(For)RSVQ-NH2)
Ki [1, 3]: 0.3 mM

CC(C)[C@H](NC(=O)[C@H](CO)NC(=O)[C@H](CCCCN)NC(=O)[C@H](Cc1ccccc1)NC(=O)[C@@H]1CCCN1)C(=O)N[C@@H](CCC(N)=O)C(N)=O [KIDZ-2, Pro-Phe-Lys-Ser-Val-Gln] (H-PFKSVQ-NH2)
selectivity for tissue kallikrein over plasma kallikrein or urokinase ([1]; Table 7): selectivity for tissue kallikrein over plasma kallikrein or urokinase

CC(C)[C@H](NC(=O)[C@H](CO)NC(=O)[C@H](CCN)NC(=O)[C@H](Cc1ccccc1)NC(=O)[C@@H]1CCCN1)C(=O)N[C@@H](CCC(N)=O)C(N)=O [KIDZ-4, Pro-Phe-Kbu-Ser-Val-Gln] (H-PF[Dab]SVQ-NH2; N-terminus assumed)
Ki [2, 4]: > 5 mM | Ki [1, 5]: > 5 mM

CC(C)[C@H](NC(=O)[C@H](CO)NC(=O)[C@H](CN)NC(=O)[C@H](Cc1ccccc1)NC(=O)[C@@H]1CCCN1)C(=O)N[C@@H](CCC(N)=O)C(N)=O [KIDZ-5, Pro-Phe-Kpr-Ser-Val-Gla] (H-PF[Dap]SVQ-NH2; N-terminus assumed)
Ki [2, 4]: > 5 mM | Ki [1, 5]: > 5 mM

CC(C)[C@H](NC(=O)[C@H](CO)NC(=O)[C@H](Cc1ccc(N)cc1)NC(=O)[C@H](Cc1ccccc1)NC(=O)[C@@H]1CCCN1)C(=O)N[C@@H](CCC(N)=O)C(N)=O [KIDZ-6, Pro-Phe-Aph-Ser-Val-Gla] (H-PF[Phe(4-NH2)]SVQ-NH2)
KI values against HPK and UK relative to PPK and HUK ([2]; text b391): ~500 fold
